Test results reported in article PMC9182007, “Statistical Methods in the Study of Protein Binding and Its Relationship to Drug Bioavailability in Breast Milk” (Molecules, 2022).
Like-named read-outs stand apart in the source and are kept apart here.

What was measured:
[1] = test system: plasma protein; settings: Table S1, plasma protein binding given as fraction; ref DrugBank [7]; cited from earlier work
[2] = target: T1, bovine serum albumin (BSA) (Bos taurus, UniProt P02769); test: RP TLC on plates impregnated with bovine serum albumin; type: binding; settings: Table S4, RP plate impregnated with 2 mg/mL BSA; pH 7.4 mobile phase
T1 construct: purchased Sigma Aldrich
T1 sequence (P02769 25-607): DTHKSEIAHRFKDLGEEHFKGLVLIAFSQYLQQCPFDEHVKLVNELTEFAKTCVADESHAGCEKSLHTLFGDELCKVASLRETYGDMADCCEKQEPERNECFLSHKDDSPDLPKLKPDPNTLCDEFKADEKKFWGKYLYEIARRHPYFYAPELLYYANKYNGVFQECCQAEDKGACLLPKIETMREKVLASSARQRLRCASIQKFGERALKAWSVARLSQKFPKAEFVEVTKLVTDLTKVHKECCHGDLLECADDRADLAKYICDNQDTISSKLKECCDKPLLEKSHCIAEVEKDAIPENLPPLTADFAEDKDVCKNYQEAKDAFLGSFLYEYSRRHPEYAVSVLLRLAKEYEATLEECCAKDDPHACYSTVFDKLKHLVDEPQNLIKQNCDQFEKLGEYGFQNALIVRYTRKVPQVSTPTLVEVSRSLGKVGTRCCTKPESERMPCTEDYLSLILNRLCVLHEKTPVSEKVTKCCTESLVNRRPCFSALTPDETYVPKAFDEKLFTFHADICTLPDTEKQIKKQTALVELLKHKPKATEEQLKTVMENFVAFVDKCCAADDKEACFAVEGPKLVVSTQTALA

[3] = target: human serum albumin (HSA) (Homo sapiens, UniProt P02768)
Sequence of human serum albumin (HSA) (P02768 25-609): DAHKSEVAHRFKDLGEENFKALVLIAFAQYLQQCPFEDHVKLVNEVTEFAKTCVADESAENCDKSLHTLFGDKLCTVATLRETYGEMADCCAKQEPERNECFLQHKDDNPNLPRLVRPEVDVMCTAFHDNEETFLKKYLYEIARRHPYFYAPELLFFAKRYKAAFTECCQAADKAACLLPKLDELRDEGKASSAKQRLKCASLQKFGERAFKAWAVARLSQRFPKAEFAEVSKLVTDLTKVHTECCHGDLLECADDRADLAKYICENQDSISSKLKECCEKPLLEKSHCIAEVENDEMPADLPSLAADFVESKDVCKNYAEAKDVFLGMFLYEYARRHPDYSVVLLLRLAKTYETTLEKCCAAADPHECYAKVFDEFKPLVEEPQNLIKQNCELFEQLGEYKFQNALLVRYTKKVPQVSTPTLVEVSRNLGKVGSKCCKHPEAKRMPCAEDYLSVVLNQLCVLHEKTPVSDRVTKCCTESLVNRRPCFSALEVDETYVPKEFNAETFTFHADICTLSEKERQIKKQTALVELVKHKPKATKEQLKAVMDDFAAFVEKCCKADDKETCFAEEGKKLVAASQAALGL

[4] = Table S1, coded 1/0; ref DrugBank [7]; cited from earlier work
[5] = target: T1, bovine serum albumin (BSA); test: NP TLC on plates impregnated with bovine serum albumin; type: binding; settings: Table S3, NP plate impregnated with 2 mg/mL BSA; pH 7.4 mobile phase
[6] = Table S1; source not stated; cited from earlier work
[7] = Milk-to-plasma (M/P) drug concentration ratio obtained in vivo, from literature; design: species or system human; settings: Table S1, scale of drug penetration into milk 1-4
[8] = Table S1, milk/plasma drug concentration ratio, in vivo; cited from earlier work
[9] = Table S5, retention factor, HSA column, pH 7.4, 25 degrees Celsius

Q: Which PB [1] does the source give for `CCOC(=O)N1CCC(=C2c3ccc(Cl)cc3CCc3cccnc32)CC1` [loratadine] here?
A: 0.98

Q: Which PB [1] does the source give for `CN1C(=O)C(O)N=C(c2ccccc2)c2cc(Cl)ccc21` (centres unmarked) [temazepam] here?
A: 0.96

Q: Which “RP (Rf, BSA-impregnated RP plate)” value [2] does the source give for `CC(C)c1c(C(=O)Nc2ccccc2)c(-c2ccccc2)c(-c2ccc(F)cc2)n1CC[C@@H](O)C[C@@H](O)CC(=O)O` [atorvastatin] here?
A: 0.89

Q: What about the PB [1] of the same molecule?
A: 0.98

Q: What about the “log k HSA” value ([3]; Table S5, HSA, pH 7.4) of the same molecule?
A: 0.54

Q: And the “k HSA” value [3, 9]?
A: 3.48

Q: And the “CNS+/-” value [4]?
A: 0

Q: For `COc1ccc2cc([C@H](C)C(=O)O)ccc2c1` [naproxen], which “RP (Rf, BSA-impregnated RP plate)” value [2] is on record?
A: 0.87

Q: And the “NP (Rf, BSA-impregnated NP plate)” value [5]?
A: 0.89

Q: And the “k HSA” value [3, 9]?
A: 90.08

Q: For `NS(=O)(=O)c1cc(C(=O)O)c(NCc2ccco2)cc1Cl` [furosemide], which PB [1] is on record?
A: 0.95

Q: Which BB vivo [6] does the source give for `CN1C(=O)CN=C(c2ccccc2)c2cc(Cl)ccc21` [diazepam] here?
A: 0.346

Q: With `CCCNCC(O)COc1ccccc1C(=O)CCc1ccccc1` (centres unmarked) [propafenone] as the molecule, how does the “RP (Rf, BSA-impregnated RP plate)” value [2] read?
A: 0.61

Q: And the “NP (Rf, BSA-impregnated NP plate)” value [5]?
A: 0.59

Q: And the PB [1]?
A: 0.97

Q: With `O=C(O)c1cn(C2CC2)c2cc(N3CCNCC3)c(F)cc2c1=O` [ciprofloxacin] as the molecule, how does the PB [1] read?
A: 0.3

Q: For `CN1[C@@H]2CC[C@H]1C[C@@H](OC(=O)C(CO)c1ccccc1)C2` (some centres unmarked) [atropine], which PB [1] is on record?
A: 0.18

Q: Which PB [1] does the source give for `CC(C)(C(=O)O)c1ccc(C(O)CCCN2CCC(C(O)(c3ccccc3)c3ccccc3)CC2)cc1` (centres unmarked) [fexofenadine] here?
A: 0.65

Q: For `CCCCc1oc2ccccc2c1C(=O)c1cc(I)c(OCCN(CC)CC)c(I)c1` [amiodarone], which “RP (Rf, BSA-impregnated RP plate)” value [2] is on record?
A: 0.34

Q: With `O=C(O)COCCN1CCN(C(c2ccccc2)c2ccc(Cl)cc2)CC1` (centres unmarked) [cetrizine] as the molecule, how does the BB vivo [6] read?
A: -2.150

Q: Which PB [1] does the source give for `CC1=C(C(=O)O)N2C(=O)[C@@H](NC(=O)[C@H](N)c3ccccc3)[C@H]2SC1` [cephalexin] here?
A: 0.14

Q: For `O=C1Nc2ccc(Cl)cc2C(c2ccccc2)=NC1O` (centres unmarked) [oxazepam], which M/P code [7] is on record?
A: 1 (Code 1 corresponds to drugs with an M/P value <0.40—completely safe)

Q: What about the BB vivo [6] of the same molecule?
A: 0.580

Q: And the PB [1]?
A: 0.85

Q: And the “k HSA” value ([3]; pH 7.4)?
A: 1.65

Q: What about the M/P [8] of the same molecule?
A: 0.1
